This passage reports binding results from publication PMC10234109 (2023).

Protein sequences, listed by entry. Tags and fused reporters are not part of them. Lines headed by an entry give the natural chain unless they say otherwise; changes in a name come on top. Residues count along the entry.
UniProt Q9JMH9: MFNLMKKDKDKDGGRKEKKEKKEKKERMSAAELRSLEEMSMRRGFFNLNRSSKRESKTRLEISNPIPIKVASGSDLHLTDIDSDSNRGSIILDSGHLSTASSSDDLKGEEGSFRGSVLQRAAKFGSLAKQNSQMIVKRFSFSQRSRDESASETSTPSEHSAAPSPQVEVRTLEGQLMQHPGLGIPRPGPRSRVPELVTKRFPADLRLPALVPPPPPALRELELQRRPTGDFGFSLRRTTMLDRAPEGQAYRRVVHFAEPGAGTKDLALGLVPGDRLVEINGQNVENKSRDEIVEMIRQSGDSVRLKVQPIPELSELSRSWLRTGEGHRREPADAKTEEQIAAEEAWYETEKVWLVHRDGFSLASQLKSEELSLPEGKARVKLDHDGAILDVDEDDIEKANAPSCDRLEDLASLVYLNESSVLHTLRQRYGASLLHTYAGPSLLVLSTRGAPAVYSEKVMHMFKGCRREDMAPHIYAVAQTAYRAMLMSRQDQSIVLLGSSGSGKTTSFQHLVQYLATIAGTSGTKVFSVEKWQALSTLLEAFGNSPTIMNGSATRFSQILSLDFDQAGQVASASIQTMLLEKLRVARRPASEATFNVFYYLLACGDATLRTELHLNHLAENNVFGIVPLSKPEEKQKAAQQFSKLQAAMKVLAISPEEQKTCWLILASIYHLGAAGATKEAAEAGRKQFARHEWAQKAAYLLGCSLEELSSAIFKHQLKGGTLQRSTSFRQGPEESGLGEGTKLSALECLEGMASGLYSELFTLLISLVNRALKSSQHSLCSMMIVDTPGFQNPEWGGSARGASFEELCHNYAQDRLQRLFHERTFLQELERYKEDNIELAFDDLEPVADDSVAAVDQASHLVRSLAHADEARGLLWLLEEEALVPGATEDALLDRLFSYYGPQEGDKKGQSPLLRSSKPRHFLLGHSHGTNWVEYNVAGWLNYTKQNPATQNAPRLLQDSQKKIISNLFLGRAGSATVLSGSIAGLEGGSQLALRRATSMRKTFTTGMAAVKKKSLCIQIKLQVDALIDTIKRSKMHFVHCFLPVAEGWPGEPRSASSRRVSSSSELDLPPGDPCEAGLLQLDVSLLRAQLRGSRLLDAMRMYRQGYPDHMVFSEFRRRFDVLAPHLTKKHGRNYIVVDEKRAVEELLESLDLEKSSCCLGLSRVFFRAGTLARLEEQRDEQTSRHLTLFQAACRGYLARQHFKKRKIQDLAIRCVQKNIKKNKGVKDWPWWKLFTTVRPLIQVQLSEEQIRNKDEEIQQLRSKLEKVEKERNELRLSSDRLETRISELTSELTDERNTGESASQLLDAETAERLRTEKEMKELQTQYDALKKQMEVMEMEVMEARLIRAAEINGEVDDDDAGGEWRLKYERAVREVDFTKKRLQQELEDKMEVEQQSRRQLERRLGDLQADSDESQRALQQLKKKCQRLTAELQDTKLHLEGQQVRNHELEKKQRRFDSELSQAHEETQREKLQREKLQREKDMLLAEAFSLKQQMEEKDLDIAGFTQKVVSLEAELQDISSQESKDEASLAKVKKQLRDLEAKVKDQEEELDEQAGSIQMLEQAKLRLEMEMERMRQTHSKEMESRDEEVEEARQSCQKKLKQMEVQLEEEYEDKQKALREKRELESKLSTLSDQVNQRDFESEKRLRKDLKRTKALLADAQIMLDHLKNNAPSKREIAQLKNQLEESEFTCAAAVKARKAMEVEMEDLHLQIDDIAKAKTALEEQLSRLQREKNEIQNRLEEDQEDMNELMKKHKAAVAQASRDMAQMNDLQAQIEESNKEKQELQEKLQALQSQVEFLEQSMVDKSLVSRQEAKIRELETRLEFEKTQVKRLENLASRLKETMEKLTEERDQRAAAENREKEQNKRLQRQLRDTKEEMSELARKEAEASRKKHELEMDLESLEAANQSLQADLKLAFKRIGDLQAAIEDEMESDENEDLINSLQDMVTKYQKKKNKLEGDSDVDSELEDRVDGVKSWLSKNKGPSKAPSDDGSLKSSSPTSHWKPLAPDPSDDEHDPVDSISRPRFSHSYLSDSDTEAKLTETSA
UniProt Q64331: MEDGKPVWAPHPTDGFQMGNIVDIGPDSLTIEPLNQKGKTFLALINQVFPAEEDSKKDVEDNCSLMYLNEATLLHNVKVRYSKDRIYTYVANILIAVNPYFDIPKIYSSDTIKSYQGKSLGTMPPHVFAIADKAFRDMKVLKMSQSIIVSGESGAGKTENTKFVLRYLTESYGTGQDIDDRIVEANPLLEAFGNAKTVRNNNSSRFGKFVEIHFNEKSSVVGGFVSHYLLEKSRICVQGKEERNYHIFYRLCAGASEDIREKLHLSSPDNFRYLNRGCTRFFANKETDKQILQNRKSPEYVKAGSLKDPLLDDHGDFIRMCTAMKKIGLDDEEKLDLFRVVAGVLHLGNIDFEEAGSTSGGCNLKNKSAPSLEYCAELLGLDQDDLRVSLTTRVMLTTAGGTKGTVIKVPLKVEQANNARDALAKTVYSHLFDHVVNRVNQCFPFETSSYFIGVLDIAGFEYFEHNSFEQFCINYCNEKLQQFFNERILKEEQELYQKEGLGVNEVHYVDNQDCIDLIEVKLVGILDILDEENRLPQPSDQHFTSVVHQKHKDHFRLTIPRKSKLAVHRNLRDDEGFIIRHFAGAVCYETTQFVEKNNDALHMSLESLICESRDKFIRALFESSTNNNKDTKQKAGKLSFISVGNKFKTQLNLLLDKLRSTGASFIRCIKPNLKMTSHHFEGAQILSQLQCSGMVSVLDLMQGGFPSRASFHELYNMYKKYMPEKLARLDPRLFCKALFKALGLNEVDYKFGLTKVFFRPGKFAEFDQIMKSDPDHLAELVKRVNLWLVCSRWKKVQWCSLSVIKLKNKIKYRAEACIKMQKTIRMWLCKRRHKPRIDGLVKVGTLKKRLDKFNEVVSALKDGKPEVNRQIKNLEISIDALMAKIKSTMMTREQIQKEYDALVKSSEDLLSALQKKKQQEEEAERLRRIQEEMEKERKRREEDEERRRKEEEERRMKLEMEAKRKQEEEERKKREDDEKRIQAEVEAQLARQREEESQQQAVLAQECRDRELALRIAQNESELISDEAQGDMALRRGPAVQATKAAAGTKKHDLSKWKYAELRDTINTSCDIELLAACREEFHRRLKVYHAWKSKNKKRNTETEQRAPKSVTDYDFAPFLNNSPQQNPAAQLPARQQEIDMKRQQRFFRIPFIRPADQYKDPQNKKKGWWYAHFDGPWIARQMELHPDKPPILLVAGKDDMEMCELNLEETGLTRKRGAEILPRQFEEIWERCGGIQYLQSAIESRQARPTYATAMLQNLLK
HCBD–GST (helical cargo-binding domain of mouse Myo6, residues 1052–1096): residues 1052-1096 of Q64331
UniProt Q02248: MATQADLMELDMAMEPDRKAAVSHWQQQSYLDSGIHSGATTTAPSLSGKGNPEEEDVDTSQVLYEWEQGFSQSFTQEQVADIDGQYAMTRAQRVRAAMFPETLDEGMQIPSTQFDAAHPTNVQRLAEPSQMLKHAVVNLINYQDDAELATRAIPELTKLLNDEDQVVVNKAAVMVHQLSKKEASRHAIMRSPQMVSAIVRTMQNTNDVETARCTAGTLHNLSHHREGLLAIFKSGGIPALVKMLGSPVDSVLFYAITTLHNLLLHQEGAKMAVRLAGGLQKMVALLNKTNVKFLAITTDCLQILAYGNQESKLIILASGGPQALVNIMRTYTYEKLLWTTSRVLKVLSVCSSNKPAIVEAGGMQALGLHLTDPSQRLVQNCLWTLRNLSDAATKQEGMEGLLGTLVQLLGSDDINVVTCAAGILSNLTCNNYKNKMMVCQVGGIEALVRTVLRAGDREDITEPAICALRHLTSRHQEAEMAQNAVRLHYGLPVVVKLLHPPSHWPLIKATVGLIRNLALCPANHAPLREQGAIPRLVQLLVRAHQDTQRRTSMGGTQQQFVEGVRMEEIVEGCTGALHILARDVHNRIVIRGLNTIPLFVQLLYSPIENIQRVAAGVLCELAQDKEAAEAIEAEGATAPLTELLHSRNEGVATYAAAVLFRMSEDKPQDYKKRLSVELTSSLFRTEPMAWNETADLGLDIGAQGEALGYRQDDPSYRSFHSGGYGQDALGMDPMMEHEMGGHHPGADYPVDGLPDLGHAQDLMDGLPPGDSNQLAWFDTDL

Assay [1] addresses GFP–FL-MYO18A (mouse) (UniProt Q9JMH9). The assay can be described thus: NanoSPD; HeLa cells transfected with MYO10^NANOTRAP, a GFP- (or mEMERALD-) tagged bait and an mCherry-tagged prey; co-transport of the prey to filopodial tips; fixed about 24 h after transfection.
The target in assay [2] is HCBD–GST (helical cargo-binding domain of mouse Myo6, residues 1052–1096) (mouse) (UniProt Q64331). The assay can be described thus: pull-down; GST pulldown; proteins mixed at 1 µM each in 40 µl of 150 mM NaCl, 1 mM EDTA, 10 mM Tris-HCl pH 7.5; 1 h at room temperature, then glutathione–Sepharose 4B for 1 h; eluted with SDS, stained gel; both purified.
Assay [3] has as its target T1, GFP–APPL2 (mouse) (UniProt Q8K3G9).
T1 sequence: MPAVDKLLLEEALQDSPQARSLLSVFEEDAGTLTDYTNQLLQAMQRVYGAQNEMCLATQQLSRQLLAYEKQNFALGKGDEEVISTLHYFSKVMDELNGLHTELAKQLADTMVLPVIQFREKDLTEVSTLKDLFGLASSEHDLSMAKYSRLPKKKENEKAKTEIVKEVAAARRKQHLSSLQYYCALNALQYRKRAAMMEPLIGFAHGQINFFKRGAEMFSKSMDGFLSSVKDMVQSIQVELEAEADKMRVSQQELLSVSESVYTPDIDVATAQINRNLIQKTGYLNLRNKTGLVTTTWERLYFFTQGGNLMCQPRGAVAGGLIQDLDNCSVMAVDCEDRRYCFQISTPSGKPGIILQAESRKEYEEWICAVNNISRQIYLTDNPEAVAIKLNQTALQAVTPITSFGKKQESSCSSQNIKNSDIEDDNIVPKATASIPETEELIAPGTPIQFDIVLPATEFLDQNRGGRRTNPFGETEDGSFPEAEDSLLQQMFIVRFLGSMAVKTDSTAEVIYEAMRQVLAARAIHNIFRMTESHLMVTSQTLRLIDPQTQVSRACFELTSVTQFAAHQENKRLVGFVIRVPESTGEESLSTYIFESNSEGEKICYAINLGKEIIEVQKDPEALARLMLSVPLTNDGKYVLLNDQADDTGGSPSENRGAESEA
As to the kind of experiment: NanoSPD; HeLa cells transfected with MYO10^NANOTRAP, a GFP- (or mEMERALD-) tagged bait and an mCherry-tagged prey; co-transport of the prey to filopodial tips; fixed about 24 h after transfection.

The target in assay [4] is GFP–FL-MYO18A (mouse) (UniProt Q9JMH9). The description is as above. This is another data set of the same source.
Assay [5] addresses mEMERALD–CTNNB1 (mouse) (UniProt Q02248). Described as above.

Read-outs that look alike come from different tables or passages of the source. Results are given in words; binding and its absence hold for the method and conditions named. Some results given as binding are weak or reduced against the parent protein; the word gives no strength. For some of these results: Tags and fused reporters may be left off the sequences shown.

Take mCh–MYO6 (from UniProt Q64331 1-1262): the binding result in assay [1] is listed as “no binding”.

B1: GIPC3 PDZ (93–181), MBP-tagged (protein)
chain: GETKEVEVTKTEDALGLTITDNGAGYAFIKRIKEGSIINRIEAVCVGDSIEAINDHSIVGCRHYEVAKMLRELPKSQPFTLRLVQPRRA
With B1, in assay [2], the binding entry is recorded as “no binding (tested: 1 µM each)”.

B2: Full-length GIPC3 (residues 1–297), MBP-tagged (protein, UniProt Q8R5M0 1-297)
chain: MDSAAPREPGATEPPARARPRLVFRTQLAHGSPTGRIEGFTNVRELYAKIAEAFGIAPTEILFCTLNSHKVDMQKLLGGQIGLEDFIFAHVRGETKEVEVTKTEDALGLTITDNGAGYAFIKRIKEGSIINRIEAVCVGDSIEAINDHSIVGCRHYEVAKMLRELPKSQPFTLRLVQPRRAFDMIGQRSRSSKCPVEAKVSSGRETLRLRSGGAATVEEAPSDVEAAAARRVDDLLESYMGIRDPELAAAVVETARSSAGAQAFARGLDAVLGEFAFPDEFVVEVWAAIGEAHDACG
For B2, the binding result in assay [2] is “binds weakly”.

B3: mCherry–GIPC3 (protein, UniProt Q8R5M0 1-297)
chain: B2 chain
For the molecule B3, the binding result in assay [3], in assay [4] and in assay [5] was “binds” throughout.

B4: GIPC3 PDZ-GH2 domains (93–297), MBP-tagged (protein)
chain: GETKEVEVTKTEDALGLTITDNGAGYAFIKRIKEGSIINRIEAVCVGDSIEAINDHSIVGCRHYEVAKMLRELPKSQPFTLRLVQPRRAFDMIGQRSRSSKCPVEAKVSSGRETLRLRSGGAATVEEAPSDVEAAAARRVDDLLESYMGIRDPELAAAVVETARSSAGAQAFARGLDAVLGEFAFPDEFVVEVWAAIGEAHDACG
With B4, in assay [2], the binding result is “binds”.
